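Compound exposure: 48 hours, 5 concentrations, 96-well plates. Abbreviation: GI50, concentration required for 50% inhibition of growth. TGI denotes the concentration required for complete inhibition of growth.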

In the experiment the test system is NCI-H322M lung. Briefly: NCI tumour cell line growth inhibition, 48 h.

As to `NNC(=O)N/N=C(/CC1(O)C(=O)Nc2ccc(Br)cc21)c1ccccc1` (stereo unspecified), the TGI is > 100 µM.
`COc1cc2c(cc1OC)C1CN3CCCC3C(O)C1c1cc(OC)c(OC)cc1-2` (stereo unspecified): the TGI was > 100 µM.
Take `CCCCCCCCCCCCCCCC(=O)OCC1OC(OCCCC)[C@H](O[C@@H]2OC(C)C(OC(=O)CCC)C(O)C2O)C(O)C1O` (stereo partly specified): the GI50 was 15.5 µM and the TGI worked out at 29.4 µM.
For `Cc1ccc2c(-c3ccnc(Nc4cccc(C(F)(F)F)c4)n3)c(-c3ccccc3)nn2n1` the same measures were 11.3 µM and > 25 µM.
With `c1ccc(-c2sc(-c3ccccc3)c3c2C(c2ccccc2)c2c(-c4ccccc4)sc(-c4ccccc4)c2C3c2ccccc2)cc1` (stereo unspecified), the TGI is > 100 µM.
Same read-out and setting: the value for `CC(NC1=NCCO1)c1ccsc1` (stereo unspecified) was > 100 µM.
With `COc1cc2c3c(n(CCCNCCCCN)c(=O)c2cc1OC)-c1cc2c(cc1C3=O)OCO2`, the GI50 was 5.22 µM and the TGI stood at 19.5 µM.
Turning to `O=C(NCCc1ccccn1)c1ccc2cc(C(=O)N3CC(CCl)c4ccc([N+](=O)[O-])cc43)[nH]c2c1` (stereo unspecified), the TGI is > 100 µM.
With `COc1ccc(/C(=N/Nc2nc3ccccc3n2Cc2ccccc2)C(=O)O)cc1`, the TGI is > 100 µM.
Still for that read-out and setting: the value for `C/C(=C\CNc1ncnc2c1ncn2C1CCCCO1)COP(=O)(O)O` (stereo unspecified) was > 100 µM; that for `N#CC(Cl)CS(=O)(=O)c1ccccc1` (stereo unspecified) was 29.9 µM; that for `C[Si](C)(C)CCOCN(C(=O)C1=CCC2(CC1)OCCO2)c1ccccc1I` was 37.9 µM.
On the same count and under the same terms, the value for `C=C(CN(C)C)C(=O)c1ccccc1` was > 54.7 µM.
For `[pH]1p2[pH]p3p1p3[pH]2.c1cc[c]([Ge]([c]2ccccc2)[c]2ccccc2)cc1.c1cc[c]([Ge]([c]2ccccc2)[c]2ccccc2)cc1.c1cc[c]([Ge]([c]2ccccc2)[c]2ccccc2)cc1`, the GI50 is 16.1 µM and the TGI is 31.3 µM.
For the compound `O=S1(=O)C[C@H](NCc2ccccc2)[C@H](NCc2ccccc2)C1`, the TGI was > 100 µM.
In the case of `CC(C)N(CCNc1nc(C(Cl)(Cl)Cl)nc2cc(Cl)ccc12)C(C)C`, the GI50 is 1.48 µM and the TGI is 3.45 µM.
For the compound `CC(=O)OC[C@@]1(C)[C@@H]2[C@@H]3[C@@]4(CO[C@]3(C)C(=O)[C@@]3(OC(C)=O)C[C@H](C)[C@H](OC(C)=O)[C@@H]3[C@H]4OC(C)=O)[C@H](OC(=O)c3ccccc3)C[C@@H]21`, the TGI is > 100 µM.
The same measure, in the same setting: then `O=C(Cn1c2ccc(Br)cc2c2nc3ccccc3nc21)NNC(=O)NC1CCCCC1`, with > 100 µM; and `O=Nn1c2ccccc2c2ccccc21`, with > 100 µM.
`CC(=O)[CH-]C(=O)c1ccccc1.CC(=O)[CH-]C(=O)c1ccccc1.CC(=O)[CH-]C(=O)c1ccccc1.[Cl-].[Hf+4]`: the GI50 is 24.3 µM and the TGI was > 100 µM.
For `CCN(CC)CCOc1ccc(/C(=C(\C)Cc2ccc(OC)cc2)c2ccc(O)cc2)cc1` the same measures were 3.92 µM and 11.8 µM.
As to `O=C(N[C@H](CO)[C@H](O)c1ccc([N+](=O)[O-])cc1)C(Cl)Cl`, the TGI was > 100 µM.
For `CCc1nc(N)nc(N)c1-c1ccc(N2CCNCC2)c([N+](=O)[O-])c1`, the TGI is > 100 µM.
The same measure, in the same setting: then `CC1(C)COC(c2cccc(C(O)c3ccc(Cl)cc3)c2)=N1` (stereo unspecified), with > 100 µM.
Turning to `O=C(O)C1CC[N-]CC1.O=C(O)C1CC[N-]CC1.[NH2-].[NH2-].[Pt+4]`, the GI50 is > 100 µM and the TGI was > 100 µM.
For the compound `CN(C)CC1CCCC/C1=N\OC(=O)c1ccccc1` (stereo unspecified), the TGI is > 100 µM.
As to `Cn1ccc(S(=O)(=O)N2CCC[C@H](Nc3nccc(-c4c(-c5cccc(O)c5)nc5occn45)n3)C2)n1`, the GI50 is 14.3 µM and the TGI was 81.6 µM.
For the compound `O=C1NC(=S)NC(=O)C1=Cc1ccc([N+](=O)[O-])o1`, the TGI is > 100 µM.
On the same count and under the same terms, then `CN1C(=O)C(O)CC1c1ccccc1F` (stereo unspecified), with > 100 µM; and `CSc1ncc2c(C#N)c3n(C)c4ccccc4n3c(=O)c2n1`, with > 100 µM.
Consider `Oc1c(Cl)cc(Cl)c(Cl)c1Cc1c(O)c(Cl)cc(Cl)c1Cl`, for which the GI50 is 0.706 µM and the TGI came out at 13.9 µM.
